Measured values from PubChem BioAssay AID485364 (National Center for Advancing Translational Sciences (NCATS), 2010).
Hit rate of the full screen: of about 360,000 compounds, about 11,000 (3.1%) were called active. Inconclusive results, whose numbers are uncertain, are shown with a selection of clear calls. Calls follow the shape of the dose curve; as a rule, active = well fitted inhibition curve with a large enough effect; inconclusive = small, poorly fitted or top-dose-only effect; inactive = no such curve, though single readings can be large or run the other way. Potencies of inconclusive entries are left out as doubtful fits.

Each molecule was assayed against Schistosoma mansoni thioredoxin glutathione reductase (TGR) (UniProt Q962Y6) (assay: qHTS Assay for the Inhibitors of Schistosoma Mansoni Peroxiredoxins). Conditions: purified TGR, DTNB reduction, TNB absorbance 405 nm; activity change, negative = inhibition: at 114 µM (top of the series) unless noted.
Procedure, shortened: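 First, TGR (20 nM dispensed) and NADPH were mixed with compound. Second, a 15 min room-temperature incubation followed. Third, further NADPH and then DTNB were added to start the reaction. Finally, TNB absorbance was monitored kinetically.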
% is scaled to controls: 0 for no effect and ±100 for the full control effect; potency is read from the fitted curve at half-maximal effect; tags tell the direction and shape of the fitted curve.
Also: nearly all actives have a fitted effect of over 60% in size.

Row | Structure (SMILES) | Potency | activity change, negative = inhibition
1 | CCOC(=O)c1ccc(NC(=S)NNC(C)(C)C)cc1 | inconclusive [inhibitor, full curve] | 
2 | CCOC(=O)c1c(-c2ccc(C)o2)csc1NC(=O)CSc1nnc(C)s1 | inconclusive [inhibitor, full curve, poor fit] | 
3 | C=C(C)c1cccc(C(C)(C)NC(=O)N2CCOCC2)c1 | inconclusive [inhibitor, single point] | 
4 | O=C(O)c1ccc(C2NCC(c3ccccc3Cl)c3c2[nH]c2ccccc32)cc1 (stereo not given) |  | inactive: 7.67%
5 | Cc1cccc(Sc2c([N+](=O)[O-])ncn2C)c1 | inconclusive [inhibitor, partial curve] | 
6 | CCCNC(=O)CS(=O)(=O)c1ccccc1 |  | inactive: -21.9%
7 | COc1ccc(Cn2c(CCC(=O)NCc3ccco3)nc3cccnc32)cc1 | inconclusive [inhibitor, partial curve] | 
8 | Cn1c(=O)c2c(ncn2CC(=O)N/N=C/C=C/c2ccco2)n(C)c1=O | active: 11.2 µM | 
9 | COc1ccccc1Nc1cc(C(=O)NC2CCCC2)c2ccccc2n1 | inactive | 
10 | Cc1c(Cl)cccc1NC(=O)CNC(=O)CCS(=O)(=O)c1ccc(F)cc1 | active: 44.7 µM | 
11 | O=[N+]([O-])c1ccc(N2CCN(CCOc3nonc3-c3ccccc3)CC2)c(Cl)c1 |  | inactive: 0.499%
12 | CCOC(=O)c1cc2c(C)n(-c3ccc(OCC)cc3)c(C)c2ccc1=O | inconclusive [inhibitor, partial curve] | 
13 | COCCNC(=O)c1sc2nc(-c3ccccc3)cn2c1C | inconclusive [inhibitor, full curve, poor fit] | 
14 | Cc1oc(-c2ccccc2)nc1CS(=O)CC(=O)N1CCc2ccccc2C1 (stereo not given) | active: 3.16 µM | 
15 | CC1Cc2ccccc2N1CC(=O)Nc1ccc(S(N)(=O)=O)cc1 (stereo not given) | inconclusive [inhibitor, partial curve] | 
16 | CN1C(=O)c2oc3ccccc3c(=O)c2C1c1ccncc1 (stereo not given) | active: 44.7 µM | 
17 | Cc1nc2ccccc2n1CC(=O)NCc1ccccc1 | inconclusive [inhibitor, single point] | 
18 | COc1ccc(S(=O)(=O)N2CCOC23CCN(S(=O)(=O)c2cccs2)CC3)cc1 | inconclusive [inhibitor, partial curve] | 
19 | O=C(NCCCc1ccccc1)C1CCN(S(=O)(=O)c2ccc(F)cc2)CC1 |  | inactive: -1.11%
20 | COC(=O)c1sccc1NC(=S)Nc1cccc(F)c1 | inconclusive [inhibitor, partial curve] | 
21 | CSc1nn(Cc2ccc(Cl)cc2)c(N(C(C)=O)C(C)=O)c1S(=O)(=O)c1ccccc1 | inconclusive [inhibitor, full curve] | 
22 | NS(=O)(=O)c1ccc(N2C(=O)C3CC=CCC3C2=O)cc1 (stereo not given) | inconclusive [inhibitor, partial curve] | 
23 | CC(C)c1ccc(N2C(=O)CC(Sc3nc4ccccc4o3)C2=O)cc1 (stereo not given) | inconclusive [inhibitor, full curve] | 

Row | Structure (SMILES) | Potency | activity change, negative = inhibition
24 | O=C(CNC(=S)NC(=O)c1ccc(Cl)cc1)c1ccccc1 |  | inactive: 4.96%
25 | COCCN1C(=S)N[C@@H](c2ccccc2)C(C(=O)OC)=C1C | active: 31.6 µM | 
26 | Cc1n[nH]c(C)c1CCN(C)Cc1cn(C)nc1-c1ccc2c(c1)OCCO2 | inconclusive [inhibitor, single point] | 
27 | O=C(c1c[nH]c2ccccc12)N1CCOCC1 | inconclusive [inhibitor, single point] | 
28 | CC1CCN(S(=O)(=O)c2ccc(NC(=O)C3CCN(C(=O)c4ccco4)CC3)cc2)CC1 | inconclusive [inhibitor, partial curve] | 
29 | Cc1cc(/C=C(/C#N)c2nc3ccccc3[nH]2)c(C)n1-c1ccccc1C(=O)O | inconclusive [inhibitor, partial curve] | 
30 | O=C(CSCc1ccccc1)N1CCN(C(=O)c2ccco2)CC1 | active: 44.7 µM | 
31 | COc1cccc(-c2ncc3ccccc3c2COC(=O)c2ccccc2C(=O)O)c1 | inconclusive [inhibitor, partial curve] | 
32 | O=C(N/N=C/c1c[nH]c2ccccc12)c1ccc(Cl)cc1 |  | inactive: -6.74%
33 | O=C(Nc1ccc(Cl)cc1Cl)c1cc(S(=O)(=O)N2CCC3(CC2)OCCO3)ccc1F |  | inactive: 0%
34 | COc1ccc(C(=O)N2CC3(CC(c4ccc(Cl)cc4)=NO3)C[C@H]2C(=O)NCC(N)=O)cc1 (stereo not given in full) | inconclusive [inhibitor, partial curve, poor fit] | 
35 | Cc1ccccc1S(=O)(=O)N(CC(O)CN1C(=O)NC(C)(C)C1=O)c1ccccc1 (stereo not given) |  | inactive: 2.79%
36 | O=C1NC(=O)N(Cc2ccco2)C(=O)/C1=C\c1cccn1CCOc1ccccc1 | active: 11.2 µM | 
37 | Cc1ccc(CCNC(=O)C2CCC(CNc3c(N4CCCC4)c(=O)c3=O)CC2)cc1 (stereo not given) | inconclusive [inhibitor, single point] | 
38 | Cc1ccc2oc(-c3cccc(NC(=O)c4ccc(Br)o4)c3)nc2c1 |  | inactive: 4.97%
39 | COc1cc(CN2CCN(Cc3ccc(C)cc3)C(CCO)C2)ccc1O (stereo not given) | inconclusive [inhibitor, single point] | 
40 | CCCNC(=O)c1cccc(Cn2cc(Br)c([N+](=O)[O-])n2)c1 | inconclusive [inhibitor, single point] | 
41 | Cc1cc2ccccc2nc1SCC(=O)NC1CCCCC1 | inconclusive [inhibitor, partial curve] | 
42 | O=C1/C(=C\c2ccco2)SC(=S)N1c1ccc(O)cc1 | inconclusive [inhibitor, partial curve] | 
43 | Cc1cc(=O)oc2c(C)c(OCC(=O)NCCc3ccc(S(N)(=O)=O)cc3)ccc12 | inconclusive [inhibitor, single point] | 
44 | C/C(=N\Nc1ccc(C(=O)O)cc1)c1ccc(Br)cc1 | inconclusive [inhibitor, partial curve] | 
45 | COc1cccc(CNC(=O)CCl)c1 | inconclusive [inhibitor, partial curve] | 
